Measured values: article PMC10726135
The list shows a part of the results. At the low end of the ranking the order means little. The protein was read in a cell extract, so binding may be indirect.

Target: T1, HNF4alpha8 (COS-7 nuclear extract) (UniProt P41235-5)
T1 sequence: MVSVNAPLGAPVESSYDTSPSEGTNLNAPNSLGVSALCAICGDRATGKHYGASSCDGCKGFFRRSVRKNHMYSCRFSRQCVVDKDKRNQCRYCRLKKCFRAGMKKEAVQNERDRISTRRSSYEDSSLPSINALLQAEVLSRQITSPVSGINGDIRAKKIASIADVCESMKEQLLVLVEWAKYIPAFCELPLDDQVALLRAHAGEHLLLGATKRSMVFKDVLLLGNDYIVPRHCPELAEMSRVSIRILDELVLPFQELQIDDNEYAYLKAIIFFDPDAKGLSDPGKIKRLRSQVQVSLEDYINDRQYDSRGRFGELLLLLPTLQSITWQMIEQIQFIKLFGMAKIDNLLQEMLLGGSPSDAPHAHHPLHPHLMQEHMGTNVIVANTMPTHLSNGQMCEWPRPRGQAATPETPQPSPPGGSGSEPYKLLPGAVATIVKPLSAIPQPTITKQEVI
Assay: protein-binding microarray
Details: COS-7 nuclear extract on double-stranded Agilent 4x180k PBM; binding buffer, salt, pH and temperature not given; high values mean tight binding; double strand, one strand shown; sequences stand for … in …GCCTAGGGAGATTAGAGTATCGGTCGA

| Sequence | binding signal (log2 normalized intensity) |
| --- | --- |
| ATGGTGCCTATTTGTCCCTGACCAAACTCA | -1.29 |
| TTAAAGTGCCATTGAGATGGTAACCACACC | -0.775 |
| TCTGTGTGTATGTGTGTGTACACATTGATA | 2.49 |
| CAGCTTCAGGAGCTGCAGGGAAGCCCCTGC | -1.03 |
| ATGTGGTCAAAACTTTGTTTGAGTTCCAAA | 1.01 |
| ATAGAAAGCCTTTGAACTGTGTTGCAAATT | 1.65 |
| GGTCAAGAGGGACAAAATGCCCAGGATTCC | -1.35 |
| GTGAATGACCCCTCCCCTCCCCCTTGGTGT | 5.83 |
| ACACAGGATTGAACCTCTGGAATTCATCTC | 0.885 |
| AACTCAAAGATTCTTAGAGAGTTGGGCAAG | -1.45 |
| CAAACACGGACAGGCAGGCCCAGACATGTC | -1.07 |
| GGATTTCCGTAACCTCACAGAAATCCAAAG | -1.12 |
| ATCAGAGCATGCATACGTGAAAGTAAAGAG | -0.959 |
| AGCTGTGCGGTAGGCATTGAGGCAGCCAGC | -1.14 |
| TAACTCAAACATCTGACAGAGATAAGGAAG | -1.28 |
| CTTTAAGGTCACATAGCAGGCATACCAGGC | -0.87 |
| AATGAGATCTCCCCACATTCCAACACAGGG | 0.464 |
| CTTGTCCAACTCCCCTCCCAAGGCAGCAAT | 4.39 |
| ACAAAGATCCCTTATTTGCATGAAGCACAA | -1.17 |
| GAGTACATGCCTCTCCCAGTGGAATGCAAA | -0.435 |
| TTCATCTGGGACGTGGCTCAAGATTACAGG | -1.04 |
| ATTCACTTTTTGGCCTTTGGCTGTTCGATG | 2.69 |
| GTTTCGCAAGGACGTGACCTTTATGGGAAA | 3.65 |
| ATGGTTTACCATATTTACTTATGGTTTGAC | 1.38 |

| Sequence | binding signal (log2 normalized intensity) |
| --- | --- |
| TCATGATTAGATTGAAGTTACGTATTTTTG | 1.37 |
| CATTCCTTAACATGGTTTGCAAGACCTCTG | 1.16 |
| TAATACAAGAGGCTTCTTATCAGCAGCTGG | -1.26 |
| CTAGTTCTTATCTCAGGTCCTGCCATTAAA | 0.453 |
| CAGCTCAGCTAGTGAGATACGGCCTGGACT | 1.92 |
| GTCGCGTATCTGACTTTATCATTGGACTCT | 5.43 |
| TCTGTTGAGAACTGGAGCAAAGGTCACTCT | 6.54 |
| AGAAAACGTAAGCCCTCTATCAAAGGAGAA | -1.31 |
| ATGGCAGGGGTTAACCTCTATTGACCTTCT | 4.96 |
| TCTCCTAAAGTGACTAGAGAGCAGGAGCCA | -1.41 |
| GCCGGCCCGGTGCGCTGGCCTTGCTTTTCA | -1.38 |
| AGTTCTGTCCTTTGTCCTGTACCTGGGAAG | 2.47 |
| ATAAATAAGAAGCCTTATCAGTATCAATGA | -1.18 |
| CCATTTCTCAGGTTGTGTTTGCAGTGAGTA | 1.77 |
| TTCCAAACATGTTTCGAACGGTTGCAGCAT | -1.27 |
| CCAGCTGCAGAGGAAGGACATGGTAAAGAT | -1.24 |
| AGAACAAACAATGGTTTGGGACAAAGTTTG | 0.64 |
| GAAGGCCAGGCAGCACAATTTGTGTCTCTC | -1.18 |
| CACTGGGGTTTAAAGTTTATAGGCTAGAAT | 0.688 |
| CTAAGCAGCTGCAGTTTCTGCTATCTGCCT | -1.42 |
| CCGTCCTCCCCCACGACAGAATTGACTCTT | 4.1 |
| AAGCTGTGGGATCCAACCAGAGGGAAGAGA | -1.37 |
| CTGCCCAGACCTTATCTTGCATTTCTTCAG | 0.246 |
| TTCACCGTATTATCTTATCTCCTCTGTAGG | 1.29 |

| Sequence | binding signal (log2 normalized intensity) |
| --- | --- |
| ACCTCAAATGCAGGTGAGAGGCCTCTAAGC | -1.36 |
| AGCTCCAGGAGACGTAGAGATAAGGTCTTC | -1.28 |
| TTAAGGACAAAGGCTTTGAGTCAACACACC | -1.21 |
| CTCGAGGTGGACTTTCCCCCCTCACACTTT | 5.92 |
| TTTTCCCTGCTGCTGGCTGGCGGCCTTTGG | 2.25 |
| GGCTTGTGCTTAGCTATTTCGTTGAATGCT | -1.29 |
| GGTACGTTCCAATATTCTGGCTTCTCGTGA | -1.24 |
| GGGAAAAGATGGTCTCTCACCTGGCTTCCC | -1.33 |
| CCCGGCTTTGGGCTTGAGCAGCTGGTGGAG | -1.24 |
| AGAAAAGAAAGTGAGGAATGCAACCACACC | -1.12 |
| ATTGGTTTCCGCTAAGTCCAAAGGTAAAAA | 4.56 |
| GACCCTCGGGCCTCCCTAGAGGCCTTCTCT | -1.31 |
| TATGTTGCTGATAAAGTCTATCTTAGCCAT | -0.393 |
| CCCGCCCAGATGTCTGGCTAAGACCTTTAG | 2.3 |
| AACTGCAGGAGTCGGGAGGTAGGGGTGGCG | -1.32 |
| TGGCTCCAAAGTCTATGTGTGCTTTCTTCA | 2.67 |
| AATACTTGCCTAAGGTCAATGTCCTTTTTC | 4.53 |
| TGTTCTTGCCTGATAGCATCGTGGGTATTT | 1.25 |
| GCGCCGGCCTCGGTCCTCGCTCGCCCGAGC | -1.26 |
| TTACCCCTTGAGTTTGAACTTTGACTTATT | 7.24 |
| TTAAAAGTTTCCCTTGATCAAAAACTGCCT | -0.872 |
| GGGGCGCAGAAGGGATGGGAACCGACCTTT | 6.53 |
| TGTCCCCCATCTCATCCTGGGTGCCTTACA | 1.48 |
| CTGCTTCCCTAGGGAGGTGATTGGTGAGTC | -0.738 |

| Sequence | binding signal (log2 normalized intensity) |
| --- | --- |
| AGGCCAGCAGTGCTTTTCCCAGGAATAAAA | -1.33 |
| AGAACTTTGACCGTTTGATTATTTGTGAAG | 2.59 |
| CGGCGCCCGCCCACTGGAGACTTCAAACGG | 1 |
| TTATTCCGTACAAGGATTCATTTCCACCCT | 1.41 |
| ACATTCCACGTTTGGGGAAGGATAAAATGA | -1.01 |
| AATGTCTTTCCTGCAGAGGGACTGACTCCC | -0.782 |
| GCAAACAAGGGCAACTCTAATAGCACAGAT | -1.28 |
| TTGAACCTTTCTTTGTCTTTGCAATGTTGT | 2.99 |
| TCTGTGCTCATTATTATCAGCAAGAAAATC | -1.32 |
| AGCTGCAGTCATGGAGGCATCATAAACTCC | -1.33 |
| TTTGTCTCTGGAGGGATCAGGTCTTTCCTG | 1.51 |
| CCGTCCACCTTTGGATCCAGCTCCTGATGT | 1.54 |
| CCCAGTGAGCAATTCTTGTCCCTTTCAAGG | 0.507 |
| GGTCAAGAGTTTTAAAGTATCCCATCCATT | 1.7 |
| GTGGACACAAAAAGGCTGTCACACTTGCCC | 0.365 |
| TATGAGCGGCGCTGACCCCGGGAGCAGCAT | 2.57 |
| GTAGTTACAGCTCATTAATCATCCGTCACC | -1.3 |
| ATAAAAGGCTGTTCTGATGCCATTCCCTGC | -1.12 |
| AACATTCTTCTCAGTGTTTTGGGTCCTACA | 1.14 |
| TACAGTGCACTTTGACCGCTCATTTGATCC | 5.69 |
| CGTATGAATGTGGGAAGCTGGCACAGCAGA | -1.13 |
